Reference: PMC5522446, “The N-terminal dimerization is required for TDP-43 splicing activity” (Scientific Reports, 2017)

Biological target: the molecule itself
Assay: SEC; protein at 50 µM; Superdex-200 Increase 10/300 GL; Buffer A (25 mM Tris-HCl, pH 8.0, 150 mM NaCl); room temperature; apparent MW from standard proteins

B1: TDP([…]) (domain or fragment)
chain: not shown
notes: Cloned into pET22b by Nde I/Xho I; this vector would add a C-terminal His6 (surmised); Printed theoretical MW 30.7 kDa; source: E. coli BL21 (DE3), purified (Ni2+-NTA, SEC)
  stoichiometry N: 2.2
